{"source": "paper PMC5474753", "about": "(Journal of molecular biology, 2016)", "proteins": {"B1": {"name": "full-length FGFR2 C342R mutant (receptor)", "chain": "not shown"}}, "molecular_target": "the molecule itself", "test": "FRET or BRET", "data": [{"protein": "B1", "values": [{"measurement": "stoichiometry N", "result": 2}]}]}
